Measured values from PubChem BioAssay AID687022 (Broad Institute, 2013).
Out of some 1,000 compounds screened, about 360 (36%) were called active.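 How the source made its calls: active means Fitted curve of melting temperature shift crosses the 1.0 threshold at or below the sample's highest valid tested concentration; inconclusive means Flat fit with activity 30 to 70, or invalid fit; inactive means Opposite direction, flat within 30, or no crossing.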 Most of the strongest results are missing from this list.

The compounds below were run against Fibroblast growth factor 22 (Homo sapiens) (UniProt Q9HCT0) (assay: binders of human FGF22 protein, dose response, FGF22 synaptogenesis inhibitor project, biophysical, thermal shift, cherry-pick (AID 687022; further: reference of the scale not given here)). Conditions: recombinant FGF22 thermal shift, SYPRO orange melting; at 38 µM (top of the series) unless noted.
Sequence of UniProt Q9HCT0 (Q9HCT0 whole entry, looked up): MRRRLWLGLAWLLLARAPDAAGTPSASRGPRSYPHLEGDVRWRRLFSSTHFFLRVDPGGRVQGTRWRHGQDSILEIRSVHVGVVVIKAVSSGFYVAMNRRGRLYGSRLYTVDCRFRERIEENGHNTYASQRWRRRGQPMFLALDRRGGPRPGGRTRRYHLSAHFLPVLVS
`Cc1ccc(S(=O)(=O)N[C@H]2C=C[C@@H](CC(=O)N3CCc4ccccc4C3)O[C@@H]2CO)cc1` was tested, and the Tm shift activity was inactive: 0.071%.
With `COCC(=O)N1[C@H](CO)[C@H](c2ccccc2)C12CN(C(=O)c1ccccc1)C2` the Tm shift activity was inactive: 0.454% [at 42 µM].
In the case of `CCCCn1cnc2c(SCc3cccc(F)c3)nc(N)nc21`, the Tm shift activity is reported as inactive: -0.433%.
For `O=C(C[C@@H]1CC[C@@H](NC(=O)Nc2cc(F)ccc2F)[C@H](CO)O1)NCCCN1CCOCC1`, the Tm shift activity was inactive: 0.042% [at 42 µM].
`CC(=O)Oc1ccc(C(=O)Nc2ccccc2C(=O)N2CCCCC2)cc1` was tested, and the Tm shift activity was inactive: -0.094%.
For `COCCNC(=O)CCc1nnc2ccc(N3CCC(C)CC3)nn12`, the Tm shift activity was inactive: -0.14%.
With `CCC(=O)N1[C@H](CO)[C@@H](c2ccccc2)[C@H]1CN(C)C(=O)CN1CCOCC1` the Tm shift activity was inactive: -0.119%.
With `Cc1ccc(S(=O)(=O)Nc2nc3ccccc3s2)cc1[N+](=O)[O-]` the Tm shift activity was inactive: 0.122%.
`Cc1ccc(S(=O)(=O)N[C@H]2C=C[C@@H](CC(=O)NCc3ccc(Cl)c(Cl)c3)O[C@H]2CO)cc1` was tested, and the Tm shift activity was inactive: 0.073%.
For `C[C@H]1CN([C@@H](C)CO)C(=O)c2cc(NS(=O)(=O)c3cn(C)cn3)ccc2O[C@H]1CN(C)Cc1ccccc1`, the Tm shift activity was inactive: -0.139%.
For `Cc1ccc(-c2ccc([C@@H]3[C@@H](CO)N4C(=O)CN(C(=O)c5ccc(F)cc5)C[C@H]34)cc2)cc1`, the Tm shift activity was inactive: 14.5%.
With `C[C@H](NC(=O)C[C@@H]1CC[C@@H](NC(=O)Nc2ccc3c(c2)OCO3)[C@@H](CO)O1)c1ccccc1` the Tm shift activity was inactive: 0.013% [at 42 µM].
For `Cc1nc2ccc(NC(=O)c3cc([N+](=O)[O-])cc([N+](=O)[O-])c3Cl)cc2s1`, the Tm shift activity was inactive: 0.47%.
`CCOC(=O)Cn1c2ccccc2n2nc(CCC(=O)O)c(=O)nc12` was tested, and the Tm shift activity was inactive: -0.267%.
`CCS(=O)(=O)N[C@@H]1CC[C@H](CC(=O)Nc2ccc(-c3ccccc3)cc2)O[C@@H]1CO` was tested, and the Tm shift activity was inactive: 0.011% [at 35 µM].
For `COc1ccc(C)cc1NC(=O)C1CCN(S(=O)(=O)c2cccs2)CC1`, the Tm shift activity was inactive: 0.023%.
For `Nc1n[nH]c(=S)n1/N=C1/C(=O)Nc2ccccc21`, the Tm shift activity was inactive: -1.04% [at 19.5 µM].
With `C[C@H]1CN([C@@H](C)CO)C(=O)Cc2cc(NS(=O)(=O)c3ccc(F)cc3)ccc2O[C@H]1CN(C)CC1CCCCC1` the Tm shift activity was inactive: -0.208%.
With `O=[N+]([O-])c1ccc(Cl)c(S(=O)(=O)Nc2ccc(S(=O)(=O)N3CCOCC3)cc2)c1` the Tm shift activity was inactive: -0.245%.
With `CO[C@@H]1CN(C)C(=O)c2ccc(NS(=O)(=O)c3ccc(F)cc3)cc2OC[C@@H](C)N(C)C[C@H]1C` the Tm shift activity was inactive: -0.057%.
For `COc1ccccc1C(=O)NNC(=O)c1ccc(NC(=O)c2ccccc2)cc1`, the Tm shift activity was inactive: 0.273%.
In the case of `COc1ccc(NC(=O)CCCN2C(=O)CN(C)C2=O)c(OC)c1`, the Tm shift activity is reported as inactive: -0.758%.
With `CCNC(=O)Nc1ccc2c(c1)C(=O)N(C)[C@H]1CC[C@H](CC(=O)NCc3ccc(F)cc3)O[C@H]1CO2` the Tm shift activity was inactive: 0.363%.
In the case of `Cc1ccc(NC(=O)c2ccc(Cl)c(S(=O)(=O)NCC3CCCO3)c2)c(O)c1` (configuration not stated), the Tm shift activity is reported as inactive: 0.021%.
With `O=C(N[C@H]1CC[C@@H](CCNS(=O)(=O)c2ccc(F)cc2)O[C@H]1CO)C1CCCC1` the Tm shift activity was inactive: -0.05% [at 42 µM].
`CCOc1cc(-c2nc(C)c(C(C)=O)n2O)ccc1OCC(=O)Nc1ccc(F)cc1` was tested, and the Tm shift activity was inactive: 0.356%.
For `O=C(Nc1cccc(S(=O)(=O)N2CCCCC2)c1)C1=NN(c2ccccc2)C(=O)CC1`, the Tm shift activity was inactive: 0.048%.
In the case of `CCn1c(=O)[nH]c(=O)c2c(N)c(C(=O)c3cc(F)ccc3F)sc21`, the Tm shift activity is reported as inactive: -0.324%.
`CC(C)c1ccc(NC(=O)Nc2nnc([C@H]3C[C@H](O)[C@@H](CO)O3)s2)cc1` was tested, and the Tm shift activity was inactive: 0.461%.
With `O=C(COC(=O)CSc1ccc([N+](=O)[O-])cc1)NCCC1=CCCCC1` the Tm shift activity was inactive: -0.227%.
With `Cc1ccc(NC(=O)C2CCCN2C(=O)Oc2ccccc2)c(C)c1` (configuration not stated) the Tm shift activity was inactive: -0.057%.
In the case of `CC1=C2[C@@H](c3ccccc3)OB(O)C[C@@H]2n2c(=O)n(-c3ccccc3)c(=O)n2C1`, the Tm shift activity is reported as inactive: -0.153%.
For `C[C@H]1CN([C@@H](C)CO)S(=O)(=O)c2ccc(C#Cc3ccncc3)cc2O[C@H]1CN(C)C(=O)Nc1ccc2c(c1)OCO2`, the Tm shift activity was inactive: 0.854%.
For `CCOc1ccc(C2OC(=O)Cc3cc(OC)c(OC)cc32)cc1` (configuration not stated), the Tm shift activity was inactive: -0.371%.
`O=[N+]([O-])c1ccc(CSc2nnc(Cc3ccccc3)o2)cc1` was tested, and the Tm shift activity was inactive: -0.077%.
For `O=C(CC1CC1)N1CC2(C1)[C@@H](c1ccccc1)[C@@H](CO)N2S(=O)(=O)Cc1ccccc1`, the Tm shift activity was inactive: -0.102%.
In the case of `CCCNC(=O)N1CC(=O)N2[C@H](CO)[C@@H](c3ccc(-c4cccc(C)c4)cc3)[C@@H]2C1`, the Tm shift activity is reported as inactive: -0.405% [at 42 µM].
With `CC(=O)N1[C@H](CO)[C@H](c2ccccc2)[C@H]1CN(C(=O)c1cccc(F)c1)C(C)C` the Tm shift activity was inactive: -0.225%.
With `COC(=O)c1cn(NC(=O)Cc2ccccc2OC)c(=O)c2ccccc12` the Tm shift activity was inactive: -0.081%.
`CCCSc1ncnc2[nH]ncc12` was tested, and the Tm shift activity was inactive: -0.089%.
For `Cc1cc(C(=O)O/N=C(\N)c2ccncc2)ccc1[N+](=O)[O-]`, the Tm shift activity was inactive: -0.188%.
For `COCC(=O)Nc1ccc2c(c1)[C@H]1C[C@@H](CC(=O)NCc3ccccn3)O[C@H](CO)[C@H]1O2`, the Tm shift activity was inactive: -0.244%.
With `O=C(C[C@@H]1CC[C@H]2[C@@H](COC[C@@H](O)CN2CC2CCOCC2)O1)NCC1CCCCC1` the Tm shift activity was inactive: -0.087%.
With `COc1cc(C2C(C#N)=C(N)Oc3n[nH]c(-c4cccnc4)c32)cc(Br)c1O` (configuration not stated) the Tm shift activity was inactive: -0.165%.
For `C[C@@H]1CN([C@H](C)CO)C(=O)Cc2cc(N(C)C)ccc2O[C@@H]1CN(C)Cc1ccc(Cl)c(Cl)c1`, the Tm shift activity was inactive: -0.391% [at 42 µM].
With `COc1ccc(Cc2nnc(-c3ccccc3)o2)cc1` the Tm shift activity was inactive: 0.016%.
With `CCN1C(=O)c2cccc3c(S(=O)(=O)Nc4ccc(O)c(C(=O)O)c4)ccc1c23` the Tm shift activity was inactive: 0.895% [at 5 µM].
